US11365205B2 (Aurigene Discovery Technologies Limited, priority 2018, dated 2022)

These molecules were tested against PRMT5/MEP50 Complex (Homo sapiens (Human), UniProt O14744) (assay: PRMT5 inhibition based on TR-FRET assay). Conditions: 32 nM PRMT5:MEP50, 50 nM Histone-H4 peptide, 1 μM SAM.
Format: biochemical
Description: PRMT5 Inhibition Based on TR-FRET Assay:
Protein arginine methyltransferase 5 (PRMT5) is a type II arginine methyltransferase that catalyze mono- and symmetric demethylation on arginine residues of histone or non-histone proteins in presence of S-adenosylmethionine (AdoMet or SAM) a cofactor responsible for donating the methyl group. PRMT5 is reported to be overexpressed in several human cancers. To identify compounds that inhibit the PRMT5 and decrease its activity, a TR-FRET based assay has been established. Time-resolved fluorescence resonance energy transfer (TR-FRET) HTS assays are homogeneous proximity assays where the interaction of two dye-labeled binding partners is detected by the energy transfer between a donor and an acceptor dye and the subsequent light emission by the acceptor dye. PRMT5 catalyzes Histone H4 peptide which is biotin tagged to the Lysine amino acid at carboxyl end, in presence of S-adenosyl-1-methionine (SAM) to methylate the peptide. The antibody specific to mono methylated H4 peptide (H4R3) with Ig conjugate binds to the methylated peptide, indirectly binding to the Europium lanthanide. SureLight Allophycocyanin-Streptavidin binds to the biotin tag of the peptide, therefore accepting the energy transferred from the Europium lanthanide. This energy transfer between Europium to SureLight Allophycocyanin is a direct measure of the activity/inhibition of the PRMT5 enzyme.
Assay buffer: 20 mM BICINE (pH 7.6), 25 mM NaCl, 2 mM DTT, 0.01% Tween-20 and 0.01% BSA.
The compound dilutions were prepared as 7.5% DMSO stock solutions in assay buffer. To 2 μL (7.5×) of test compound, 5 μL of PRMT5 enzyme prepared in assay buffer (Final concentration of 32 nM in 15 μL reaction volume) was added and allowed for 30 minutes pre-incubation time in a white polystyrene 384-well plate at room temperature. […] The plates were then read on Victor-3 with Excitation at 340 nm and Emissions collected at 615 and 665 nm in TR-FRET protocol. […]

Chain of UniProt O14744 (O14744 whole entry): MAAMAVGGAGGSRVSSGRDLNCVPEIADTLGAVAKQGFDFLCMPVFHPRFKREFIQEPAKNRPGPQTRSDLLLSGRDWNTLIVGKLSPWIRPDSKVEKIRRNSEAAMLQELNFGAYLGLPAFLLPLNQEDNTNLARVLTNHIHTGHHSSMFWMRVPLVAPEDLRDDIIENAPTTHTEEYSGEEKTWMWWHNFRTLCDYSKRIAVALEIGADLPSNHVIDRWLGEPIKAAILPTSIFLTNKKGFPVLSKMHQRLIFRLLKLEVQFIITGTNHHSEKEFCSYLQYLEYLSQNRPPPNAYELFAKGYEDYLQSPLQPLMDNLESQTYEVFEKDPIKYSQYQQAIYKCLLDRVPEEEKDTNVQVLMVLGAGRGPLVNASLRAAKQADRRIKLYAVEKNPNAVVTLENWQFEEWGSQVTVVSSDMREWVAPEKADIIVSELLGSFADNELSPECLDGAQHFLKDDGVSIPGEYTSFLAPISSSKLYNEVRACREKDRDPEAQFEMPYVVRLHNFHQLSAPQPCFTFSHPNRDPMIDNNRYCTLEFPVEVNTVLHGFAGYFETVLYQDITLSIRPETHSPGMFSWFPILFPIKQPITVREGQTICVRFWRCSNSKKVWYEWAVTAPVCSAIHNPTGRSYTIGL
Chain of UniProt O14744 (Q9BQA1 whole entry partner): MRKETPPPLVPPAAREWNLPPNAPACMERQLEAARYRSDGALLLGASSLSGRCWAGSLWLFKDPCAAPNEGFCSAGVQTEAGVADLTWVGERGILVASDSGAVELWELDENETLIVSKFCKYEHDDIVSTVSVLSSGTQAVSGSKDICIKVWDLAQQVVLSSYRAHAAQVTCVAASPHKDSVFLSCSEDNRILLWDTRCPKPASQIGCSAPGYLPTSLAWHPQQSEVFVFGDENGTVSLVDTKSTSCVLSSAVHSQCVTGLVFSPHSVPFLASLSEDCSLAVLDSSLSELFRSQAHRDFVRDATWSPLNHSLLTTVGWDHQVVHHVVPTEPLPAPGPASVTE

Row | IC50 [nM] | Structure (SMILES)
1 | 120 | N#Cc1ccc(Cn2ccn(CC(O)CN3CCc4ccccc4C3)c2=O)cc1 (single isomer, unassigned) [Example 82b, 4-((3-(3-(3,4-dihydroisoquinolin-2(1H)-yl)-2-hydroxypropyl)-2-oxo-2,3-dihydro-1H-imidazol-1-yl)methyl)benzonitrile]
2 | 30 | CC1(C)CN(Cc2ccc(C#N)cc2)C(=O)N1CC(O)CN1CCc2ccccc2C1 (stereo not drawn) [Example 2]
3 | 110 | Cc1ccc(CN2CC(C)(C)N(CC(O)CN3CCc4ccccc4C3)C2=O)cc1 (stereo not drawn) [Example 5, 3-(3-(3,4-dihydroisoquinolin-2(1H)-yl)-2-hydroxypropyl)-4,4-dimethyl-1-(4-methylbenzyl)imidazolidin-2-one]
